Measurements reported in PubChem BioAssay AID1918953 (Molecular Pharmacology Branch, DTP, NCI, 2023).
Not every entry of the source has a single result; some have several. Only these are listed. An entry can have further records. The values listed for one entry are repeats (runs, samples, wells, individuals or studies). A date in brackets names the month of the test.

System: MDA-MB-231 complex spheroid viability
Assay: Anticancer human tumor MDA-MB-231/ATCC cell line growth inhibition;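 note: drug exposure lasted 7 days starting on day 3 of spheroid growth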
Conditions: for viability, T/C: stronger effect = lower value; for IC50: compound alone
Description: Multicellular complex tumor spheroid response to LSD1 Inhibitor Iadademstat in combination with a variety of drugs and investigational agents in selected tumor cell lines
The current study was undertaken to assess response to LSD1 inhibitors in combination with standard-of-care drugs and investigational agents in solid tumor complex spheroid models as well as in the K-562 leukemia. Complex spheroids include a stromal component modeled by human endothelial cells (HUVEC) and fibroblasts modeled by human mesenchymal stem cells (MSCs). The concentration ranges selected for each drug and investigational agent were based upon clinically achievable concentrations if the clinical Cmax of the agent was known.
Compounds. The drugs and investigational agents used in this study are listed on Table 1. All of the agents used, including staurosporine (NSC755774) and gemcitabine (NSC613327), were obtained from the Developmental Therapeutics Program, NCI. FDA-approved anticancer drugs are available from the NCI at http://dtp.nci.nih.gov/branches/dscb/oncology_drugset_explanation.html. Drugs and investigational agents were >95% pure by proton nuclear magnetic resonance (NMR) and liquid chromatography/mass spectrometry (LC/MS). Stock solutions were prepared at 400x in DMSO, stored at -70 degrees C, and diluted in fresh medium prior to their use. The final concentration of DMSO in cell culture wells never exceeded 0.25% (v/v). The FDA-approved anticancer drug set is available from the Developmental Therapeutics Program at https://dtp.cancer.gov/organization/dscb/obtaining/available_plates.htm. All drugs and investigational agents were tested over a range starting from a high concentration at or near the clinical Cmax and decreasing in half-log increments. If the clinical Cmax for an agent had not been determined, the highest concentration tested was 10 microM.
Cell Lines. The patient-derived cancer cell (PDC) lines: 292921-168-R-J2-PDC, K24384-001-R-PDC, and 521955-158-R2-J5-PDC pancreatic carcinomas, 556581-035-R-J1 ovarian carcinoma, 324938-238-R-J1-PDC, 855422-203-R-J1-PDC and 883617-216-R-J1-PDC urothelial bladder carcinomas, 743489-274-T-PDC renal cell carcinoma, 138582-R-J1 Merkel cell tumor, K60290-347-R-J1 and K57222-313-R-J1-PDC glioblastomas, 653999-131-R-J2-PDC, LG0703-F948-PDC, and 349418-098-R-PDC non-small cell lung carcinomas, 885512-296-R-J2-PDC, 171881-019-R-J1-PDC breast carcinomas and 186277-243-T-J2-PDC and 233499-124-R-J2-PDC colon carcinomas were obtained from the NCI Patient-Derived Models Repository (PDMR, https://pdmr.cancer.gov). The established cell lines NCI/ADR-RES (RRID:CVCL_14520 and OVCAR-5 (RRID:CVCL_1628) ovarian carcinomas, 786-O (RRID:CVCL_1051) and A498 (RRID:CVCL_A498) renal cell carcinoma, NCI-H211 (ATCC, cat. CRL-5824; RRID:CVCL_1529), NCI-H196 (ATCC, cat. CRL-5823, RRID:CVCL_1509), SW 1271 (ATCC, cat. CRL-2177, RRID:CVCL_1716) and NCI-H1876 (ATCC, cat. CRL-5902, RRID:CVCL_1503) small cell lung carcinomas, MDA-MB-231 (RRID:CVCL_0062) and MDA-MB-468 (RRID:CVCL_0419)breast carcinomas (10-12). Pooled donor human umbilical vein endothelial cells (HUVEC, Lonza, cat. CC-2519) and human mesenchymal stem cells (hMSC, Lonza, cat. PT-2501) were purchased from Lonza (Walkersville, MD).
Cell Culture. All cells were maintained in an incubator at 37 degrees C and 5% CO2 with 95% humidity. The PDC lines were cultured according to standard operating procedures established by the NCI PDMR (https://pdmr.cancer.gov). Briefly all PDCs were thawed and cultured in Matrigel-coated flasks prepared with a working solution of 1X Ham's F-12 nutrient mix, without supplementation (Invitrogen, Waltham, MA, cat. 11765054), 100 U/mL penicillin-streptomycin (Invitrogen, cat. 15140122), and 2.5% Matrigel (Corning Inc., Corning, NY, cat. 354248) for the first three passages. […]

CC1(C)CCC(CN2CCN(c3ccc(C(=O)NS(=O)(=O)c4ccc(NCC5CCOCC5)c([N+](=O)[O-])c4)c(Oc4cnc5[nH]ccc5c4)c3)CC2)=C(c2ccc(Cl)cc2)C1
viability, T/C (compound alone 10 µM): 33.9% [2022-01] and 1.78% [2022-02]

NC1CC1c1ccc(-c2cccc(O)c2)cc1 (configuration not stated)
IC50 (drug combinations, run of 02/01/2022): > 10 µM, 8.31 µM, 9.79 µM, 7.59 µM, 6.71 µM, 9.99 µM, 5.95 µM, 3.5 µM, 4.67 µM, 8.8 µM, 7.22 µM, 8.63 µM, 5.82 µM, 6.26 µM

CCN(c1cc(-c2ccc(CN3CCOCC3)cc2)cc(C(=O)NCc2c(C)cc(C)[nH]c2=O)c1C)C1CCOCC1
IC50: > 3 µM [2022-01] and 191 nM [2022-02]

CC(C)CC(NC(=O)C(Cc1ccccc1)NC(=O)c1cnccn1)B(O)O (configuration not stated)
viability, T/C (compound alone 0.001 µM): 54.1% [2022-01] and 0.34% [2022-02]

O=C(C=Cc1cccc(S(=O)(=O)Nc2ccccc2)c1)NO
viability, T/C (compound alone 3 µM): 0.72% [2022-01] and 88.2% [2022-02]

NC1CCC(NC2CC2c2ccccc2)CC1 (configuration not stated)
viability, T/C (compound alone 3.16 µM): 87.1, 86.5, 86.3, 85.5, 79.7, 84.2, 81.8, 80.9, 83, 91.6, 74.2, 76.7, 80.2, 83.5, 84.7, 65, 75.6, 77.5, 92.9, 89.9, 83.4, 75.9, 72.8, 89.5, 88.1%

CC1COCCN1c1cc(-c2ccnn2C)c2ccnc(-c3ccn[nH]3)c2n1 (configuration not stated)
IC50: 36.7 nM [2022-01] and < 3.16 nM [2022-02]
